# Results from the supplement of paper PMC8728848.
# This is one part of the list.
# B1: BC2L-A (Burkholderia cenocepacia), Q1BKJ8_BURCA (protein)
# chain: ADSQTSSNRAGEFSIPPNTDFRAIFFANAAEQQHIKLFIGDSQEPAAYHKLTTRDGPREATLNSGNGKIRFEVSVNGKPSATDARLAPINGKKSDGSPFTVNFGIVVSEDGHDSDYNDGIVVLQWPIG
# How the values were obtained:
# Assay in all cases: glycan array binding signal (z-score within array); higher = stronger binding
# Settings in all cases: glycan notation: IUPAC condensed, linker removed
# [1] = target: Fuc(a1-2)Gal
# Method in brief: (§1)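 Glycan array data were curated from 3228 arrays in the Consortium for Functional Glycomics database and kept only where the protein sequence was available. Glycan names were converted to IUPAC-condensed notation, and columns mapping to the same glycan were averaged. The binding signal is a within-array Z-score, averaged across arrays of the same protein sequence at different concentrations or buffers and across linkers. Negative Z-scores can be read as non-binding.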
# [2] = target: Fuc(a1-2)Gal(b1-3)GalNAc
# Method in brief: as §1
# [3] = target: Fuc(a1-2)Gal(b1-3)GalNAc(a1-3)[Fuc(a1-2)]Gal(b1-4)Glc
# Method in brief: as §1
# [4] = target: Fuc(a1-2)Gal(b1-3)GalNAc(a1-3)[Fuc(a1-2)]Gal(b1-4)GlcNAc
# Method in brief: as §1
# [5] = target: Fuc(a1-2)Gal(b1-3)GalNAc(b1-3)Gal
# Method in brief: as §1
# [6] = target: Fuc(a1-2)Gal(b1-3)GalNAc(b1-3)Gal(a1-4)Gal(b1-4)Glc
# Method in brief: as §1
# [7] = target: Fuc(a1-2)Gal(b1-3)GalNAc(b1-4)[Neu5Ac(a2-3)]Gal(b1-4)Glc
# Method in brief: as §1
# [8] = target: Fuc(a1-2)Gal(b1-3)GlcNAc
# Method in brief: as §1
# [9] = target: Fuc(a1-2)Gal(b1-3)GlcNAc(b1-2)Man(a1-3)[Fuc(a1-2)Gal(b1-3)GlcNAc(b1-2)Man(a1-6)]Man(b1-4)GlcNAc(b1-4)GlcNAc
# Method in brief: as §1
# [10] = target: Fuc(a1-2)Gal(b1-3)GlcNAc(b1-2)Man(a1-3)[Fuc(a1-2)Gal(b1-3)GlcNAc(b1-2)Man(a1-6)]Man(b1-4)GlcNAc(b1-4)[Fuc(a1-6)]GlcNAc
# Method in brief: as §1
# [11] = target: Fuc(a1-2)Gal(b1-3)GlcNAc(b1-3)Gal(b1-4)Glc
# Method in brief: as §1
# [12] = target: Fuc(a1-2)Gal(b1-3)GlcNAc(b1-3)GalNAc
# Method in brief: as §1
# [13] = target: Fuc(a1-2)Gal(b1-3)GlcNAc(b1-3)[Fuc(a1-3)[Gal(b1-4)]GlcNAc(b1-6)]Gal(b1-4)Glc
# Method in brief: as §1
# [14] = target: Fuc(a1-2)Gal(b1-3)GlcNAc(b1-3)[Gal(b1-4)GlcNAc(b1-6)]Gal(b1-4)Glc
# Method in brief: as §1
# [15] = target: Fuc(a1-2)Gal(b1-3)GlcNAc(b1-3)[Gal(b1-4)[Fuc(a1-3)]GlcNAc(b1-6)]Gal(b1-4)Glc
# Method in brief: as §1
# [16] = target: Fuc(a1-2)Gal(b1-3)GlcNAc(b1-3)[Neu5Ac(a2-6)Gal(b1-4)GlcNAc(b1-6)]Gal(b1-4)Glc
# Method in brief: as §1
# [17] = target: Fuc(a1-2)Gal(b1-3)[Fuc(a1-4)]GlcNAc
# Method in brief: as §1
# [18] = target: Fuc(a1-2)Gal(b1-3)[Fuc(a1-4)]GlcNAc(b1-2)Man(a1-3)[Fuc(a1-2)Gal(b1-3)[Fuc(a1-4)]GlcNAc(b1-2)Man(a1-6)]Man(b1-4)GlcNAc(b1-4)GlcNAc
# Method in brief: as §1
# [19] = target: Fuc(a1-2)Gal(b1-3)[Fuc(a1-4)]GlcNAc(b1-3)[Fuc(a1-3)[Gal(b1-4)]GlcNAc(b1-6)]Gal(b1-4)Glc
# Method in brief: as §1
# [20] = target: Fuc(a1-2)Gal(b1-3)[Fuc(a1-4)]GlcNAc(b1-3)[Gal(b1-4)GlcNAc(b1-6)]Gal(b1-4)Glc
# Method in brief: as §1
# [21] = target: Fuc(a1-2)Gal(b1-4)Glc
# Method in brief: as §1
# [22] = target: Fuc(a1-2)Gal(b1-4)Glc6S
# Method in brief: as §1
# [23] = target: Fuc(a1-2)Gal(b1-4)GlcNAc
# Method in brief: as §1
# [24] = target: Fuc(a1-2)Gal(b1-4)GlcNAc(b1-2)Man(a1-3)[Fuc(a1-2)Gal(b1-4)GlcNAc(b1-2)Man(a1-6)]Man(b1-4)GlcNAc(b1-4)GlcNAc
# Method in brief: as §1
# [25] = target: Fuc(a1-2)Gal(b1-4)GlcNAc(b1-2)Man(a1-3)[Fuc(a1-2)Gal(b1-4)GlcNAc(b1-2)Man(a1-6)]Man(b1-4)GlcNAc(b1-4)[Fuc(a1-6)]GlcNAc
# Method in brief: as §1
# [26] = target: Fuc(a1-2)Gal(b1-4)GlcNAc(b1-2)[Fuc(a1-2)Gal(b1-4)GlcNAc(b1-4)]Man(a1-3)[Fuc(a1-2)Gal(b1-4)GlcNAc(b1-2)Man(a1-6)]Man(b1-4)GlcNAc(b1-4)GlcNAc
# Method in brief: as §1
# [27] = target: Fuc(a1-2)Gal(b1-4)GlcNAc(b1-3)Gal(b1-4)GlcNAc
# Method in brief: as §1
# [28] = target: Fuc(a1-2)Gal(b1-4)GlcNAc(b1-3)Gal(b1-4)GlcNAc(b1-3)Gal(b1-4)GlcNAc
# Method in brief: as §1
# [29] = target: Fuc(a1-2)Gal(b1-4)GlcNAc(b1-3)GalNAc
# Method in brief: as §1
# [30] = target: Fuc(a1-2)Gal(b1-4)GlcNAc(b1-3)[Fuc(a1-2)Gal(b1-4)GlcNAc(b1-6)]GalNAc
# Method in brief: as §1
binder,measurement,setting,value
B1,glycan array binding signal (z-score),[1],-0.196
same,glycan array binding signal (z-score),[2],0.042
same,glycan array binding signal (z-score),[3],-0.219
same,glycan array binding signal (z-score),[4],-0.22
same,glycan array binding signal (z-score),[5],-0.268
same,glycan array binding signal (z-score),[6],0.286
same,glycan array binding signal (z-score),[7],0.357
same,glycan array binding signal (z-score),[8],-0.204
same,glycan array binding signal (z-score),[9],0.726
same,glycan array binding signal (z-score),[10],0.386
same,glycan array binding signal (z-score),[11],-0.207
same,glycan array binding signal (z-score),[12],-0.215
same,glycan array binding signal (z-score),[13],-0.215
same,glycan array binding signal (z-score),[14],-0.217
same,glycan array binding signal (z-score),[15],-0.063
same,glycan array binding signal (z-score),[16],-0.219
same,glycan array binding signal (z-score),[17],-0.226
same,glycan array binding signal (z-score),[18],-0.074
same,glycan array binding signal (z-score),[19],-0.22
same,glycan array binding signal (z-score),[20],-0.167
same,glycan array binding signal (z-score),[21],-0.11
same,glycan array binding signal (z-score),[22],-0.139
same,glycan array binding signal (z-score),[23],0.167
same,glycan array binding signal (z-score),[24],0.306
same,glycan array binding signal (z-score),[25],0.226
same,glycan array binding signal (z-score),[26],-0.1
same,glycan array binding signal (z-score),[27],0.237
same,glycan array binding signal (z-score),[28],0.018
same,glycan array binding signal (z-score),[29],-0.217
same,glycan array binding signal (z-score),[30],-0.205
